In PubChem BioAssay AID624417 (National Center for Advancing Translational Sciences (NCATS), 2012):
In all, about 410,000 compounds went through this assay and about 6,400 (1.6%) were called active. The inconclusive results got no clear call from the source; some entries with a clear call stand among them for comparison. The call rests on the fitted dose curve; in most records, active means well fitted inhibition curve with a large enough effect; inconclusive means small, poorly fitted or top-dose-only effect; inactive means no such curve, though single readings can be large or run the other way. Potencies of inconclusive entries are left out as doubtful fits.

target: Glucagon-like peptide 1 receptor (Homo sapiens) (UniProt P43220); test: qHTS of GLP-1 Receptor Inverse Agonists (Inhibition Mode); conditions: HEK293 GLP-1R CRE-luciferase, luminescence, 24 h, GLP-1R form is constitutively active; series mostly up to 38.3 µM; further: nearly all actives have a fitted effect of over 55% in size
Chain of UniProt P43220 (P43220 whole entry, looked up): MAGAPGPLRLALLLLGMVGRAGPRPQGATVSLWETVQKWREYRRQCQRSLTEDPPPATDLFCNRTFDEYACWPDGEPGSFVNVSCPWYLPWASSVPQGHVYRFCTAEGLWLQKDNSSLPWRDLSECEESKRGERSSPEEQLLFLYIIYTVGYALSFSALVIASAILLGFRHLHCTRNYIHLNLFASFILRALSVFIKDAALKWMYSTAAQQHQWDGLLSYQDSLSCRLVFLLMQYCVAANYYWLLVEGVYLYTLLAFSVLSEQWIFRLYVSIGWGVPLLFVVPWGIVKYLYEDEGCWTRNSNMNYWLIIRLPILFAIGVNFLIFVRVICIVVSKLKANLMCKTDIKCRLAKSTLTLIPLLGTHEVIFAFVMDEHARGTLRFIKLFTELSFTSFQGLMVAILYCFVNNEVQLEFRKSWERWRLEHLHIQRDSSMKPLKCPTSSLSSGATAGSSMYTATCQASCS
Outline: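 Assay principle: reduced luminescence from a cAMP-responsive reporter in HEK293 cells co-expressing a constitutively active GLP-1R. Conditions: 24 hr compound incubation, 37 deg C, 5% CO2.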
Potency means the concentration at half of the fitted maximal effect; tags describe the fitted curve by direction and shape.

Structure (SMILES)	Potency
Cc1ccccc1CS(=O)(=O)Cc1ccc(C(=O)NC2CCCCC2)o1	inconclusive [inhibitor, single point]
COc1ccc(N2CC(C(=O)Nc3nc4ccc(OC)cc4s3)CC2=O)cc1 (stereo not given)	inconclusive [inhibitor, partial curve, poor fit]
CCOC(=O)c1c(NC(=O)CSc2nnc(C)c(=O)[nH]2)sc(C)c1-c1ccc(C)cc1	inconclusive [inhibitor, partial curve]
Cc1cccc(C)c1N1C(=O)CN(Cc2ccccc2)C1=S	inconclusive [inhibitor, single point]
COc1ccc(C(=O)Nc2cc(-c3nc4ncccc4o3)ccc2C)cc1Br	inactive
Clc1ccc(OCCCN2CCCCC2)c(Br)c1	inconclusive [inhibitor, single point]
COc1ccc(Oc2ccc(C(F)(F)F)cc2NC(=O)c2ccc(C)cc2)cc1	inconclusive [inhibitor, partial curve, poor fit]
NS(=O)(=O)c1ccc(NC(=O)/C=C/c2cccc(Cl)c2)cc1	inconclusive [inhibitor, single point]
CCN(CC)c1ccc2cc(-c3nnc(-c4ccccc4)o3)c(=O)oc2c1	inactive
CCn1cc(/C=N/N=C2\CCC3C4CCc5cc(O)ccc5C4CC[C@]23C)c(C)n1 (stereo not given in full)	inconclusive [inhibitor, single point]
CCN(CC)CCCNC(=O)COc1ccc2oc3c(c2c1)CCCC3	inconclusive [inhibitor, partial curve, poor fit]
Cc1cc(=O)c2ccccc2n1Cc1ccccc1	inconclusive [inhibitor, partial curve, poor fit]
[N-]=[N+]=NC(c1ccccc1)C(NC(=O)c1cc(C(F)(F)F)cc(C(F)(F)F)c1)c1ccccc1 (stereo not given)	inconclusive [inhibitor, full curve]
COC(=O)c1ccc(C(=O)OC)c(NC(=O)CSc2cccc[n+]2[O-])c1	inconclusive [inhibitor, full curve, poor fit]
O=C(CCS(=O)(=O)c1ccc2c(c1)NC(=O)CS2)NCCc1ccc(Cl)cc1	inconclusive [inhibitor, partial curve, poor fit]
Cc1ccc(C)c(-c2ccc(=O)n(C(C)C(=O)Nc3ccccc3C(F)(F)F)n2)c1 (stereo not given)	inconclusive [inhibitor, single point]
Clc1ncnc2[nH]ccc12	inactive
Cc1ccc(O)c(NC(=O)C2CC(c3c(F)cccc3Cl)=NO2)c1 (stereo not given)	inconclusive [inhibitor, single point]
O=C(NCCCN1CCCC1)c1ccc2c(c1)N(Cc1ccc(F)cc1)C(=O)c1ccccc1S2=O (stereo not given)	inconclusive [inhibitor, single point]
Nc1c(S(=O)(=O)c2ccccc2)c2nc3ccccc3nc2n1/N=C/c1cccc(O)c1	inconclusive [inhibitor, partial curve, poor fit]

Structure (SMILES)	Potency
CCOc1ccccc1NC(=O)CSc1ccc([N+](=O)[O-])cc1	inactive
O=C(Nc1ccccc1F)C(c1ccccc1)N1Cc2ccccc2C1=O (stereo not given)	inconclusive [inhibitor, partial curve, poor fit]
COc1ccc(OC)c(NC(=O)CSc2nnc(C3CCCCC3)n2N)c1	inactive
O=S(=O)(Nc1ccc(-c2ccc(N3CCOCC3)nn2)cc1)c1ccc(Cl)c(Cl)c1	inconclusive [inhibitor, single point]
Cc1ccc(CN(C(=O)COc2cccc(Cl)c2)c2ccccn2)o1	inconclusive [inhibitor, single point]
CCSc1ncc(Cl)c(C(=O)Nc2ccc(S(=O)(=O)N3CCCCC3CC)cc2)n1 (stereo not given)	inconclusive [inhibitor, partial curve, poor fit]
O=C(NCc1ccccc1)C1Cc2c(-c3cccc(F)c3)ccnc2O1 (stereo not given)	inconclusive [inhibitor, full curve]
CC(/C=N/n1c(-c2ccc(C)cc2)n[nH]c1=S)=C\c1ccco1	inactive
COc1cc(O)ccc1-c1nc2ccc(Br)cn2c1Nc1ccccc1C	inconclusive [inhibitor, partial curve, poor fit]
CC(NC(=S)Nc1ccc(OC(F)F)c(Cl)c1)C(C)(C)C (stereo not given)	inconclusive [inhibitor, partial curve, poor fit]
COc1cccc(CNCCc2c[nH]c3ccccc23)c1OCc1ccccc1F	inconclusive [inhibitor, single point]
O=C(COC(=O)c1ccc(O)cc1)Nc1cccc(S(=O)(=O)N2CCCCC2)c1	inconclusive [inhibitor, partial curve]
Cc1nc(NC(=O)c2ccc(Cl)cc2)sc1Cc1ccc2c(c1)OCO2	inconclusive [inhibitor, partial curve]
COc1ccc(C(=O)c2cc([N+](=O)[O-])ccc2N2CCCC2)cc1	inconclusive [inhibitor, full curve, poor fit]
COc1cc(Cl)ccc1OCc1cc(C(=O)N2C[C@]3(C)C[C@H]2CC(C)(C)C3)no1	inconclusive [inhibitor, partial curve, poor fit]
COc1ccc(CCNC(=O)C(=O)NCC2CCCN2S(=O)(=O)c2ccccc2)cc1OC (stereo not given)	inconclusive [inhibitor, single point]
O=C1c2cc(Br)ccc2OC2C=CC=CC12 (stereo not given)	inactive
CC(Oc1ccc(Br)cc1)C(=O)Nc1ccc(S(=O)(=O)N(C)C2CCN(C)CC2)cc1 (stereo not given)	active: 2.82 µM
c1ccc(-n2cc(CN3CCCC3)c(-c3ccc4c(c3)OCO4)n2)cc1	inconclusive [inhibitor, single point]
Cc1cc(=O)oc2cc(OC(C)C(=O)NC3CCCC3)ccc12 (stereo not given)	inactive
